# Experimental data as given in paper PMC4336329 (PLoS ONE, 2015).
# About 14,000 (4.5%) of roughly 310,000 compounds showed an effect of 50% or more. Effects have a minus sign here. The list shows a part of the results.
# Biological target: human ether-à-go-go-related gene (hERG) potassium channel (human, UniProt Q12809)
# Experiment: primary screen, population patch clamp on CHO cells stably expressing hERG
# 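Note: peak tail current of the secondary pulse compared with the same well before compound.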
# Sequence of human ether-à-go-go-related gene (hERG) potassium channel (Q12809 whole entry, looked up): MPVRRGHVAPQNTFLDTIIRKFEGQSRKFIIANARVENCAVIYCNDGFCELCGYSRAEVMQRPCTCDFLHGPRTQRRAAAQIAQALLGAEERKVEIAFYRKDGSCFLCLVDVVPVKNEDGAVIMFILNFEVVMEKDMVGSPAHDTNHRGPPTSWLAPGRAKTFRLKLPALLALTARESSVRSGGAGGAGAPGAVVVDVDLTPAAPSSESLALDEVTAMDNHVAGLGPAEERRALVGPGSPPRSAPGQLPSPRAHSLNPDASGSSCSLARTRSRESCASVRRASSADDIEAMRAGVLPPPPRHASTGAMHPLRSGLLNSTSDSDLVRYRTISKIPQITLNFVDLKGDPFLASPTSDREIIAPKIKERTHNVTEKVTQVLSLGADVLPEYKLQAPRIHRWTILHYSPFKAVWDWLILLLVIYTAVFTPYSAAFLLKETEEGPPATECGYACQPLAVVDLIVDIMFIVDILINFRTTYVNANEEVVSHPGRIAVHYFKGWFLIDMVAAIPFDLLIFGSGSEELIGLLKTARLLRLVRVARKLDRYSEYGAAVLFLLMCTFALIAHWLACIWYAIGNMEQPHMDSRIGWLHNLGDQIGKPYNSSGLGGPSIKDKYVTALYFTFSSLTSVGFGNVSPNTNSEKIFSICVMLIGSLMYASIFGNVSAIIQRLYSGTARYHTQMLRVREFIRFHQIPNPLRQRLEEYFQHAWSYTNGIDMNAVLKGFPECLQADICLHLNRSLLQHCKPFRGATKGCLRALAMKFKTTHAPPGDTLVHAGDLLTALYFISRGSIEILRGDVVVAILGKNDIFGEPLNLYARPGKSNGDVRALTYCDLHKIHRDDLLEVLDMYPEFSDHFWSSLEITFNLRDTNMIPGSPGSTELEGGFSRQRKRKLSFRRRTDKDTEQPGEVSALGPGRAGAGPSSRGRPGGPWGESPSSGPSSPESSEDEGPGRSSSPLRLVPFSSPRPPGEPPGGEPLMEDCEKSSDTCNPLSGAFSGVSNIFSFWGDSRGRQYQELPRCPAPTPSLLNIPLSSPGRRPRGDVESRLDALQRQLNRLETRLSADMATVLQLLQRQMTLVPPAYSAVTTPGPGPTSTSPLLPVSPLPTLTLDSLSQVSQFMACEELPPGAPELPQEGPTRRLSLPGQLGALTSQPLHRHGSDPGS
row,Structure (SMILES),"hERG current change (%, negative = inhibition) at 10uM [%]"
1,COc1ccc(-n2cc(CNCc3cccnc3)c(-c3cccc(F)c3)n2)cc1,-47.7
2,CCOC(=O)C1=C(CN2CCSCC2)NC(=O)NC1c1cccc([N+](=O)[O-])c1 (stereo not shown),-10.7
3,c1cncc(-c2nnc(-c3cccnc3)nn2)c1,2.41
4,CCCCNC(=O)Cc1coc2ccc3ccccc3c12,-12.6
5,O=C(NCc1ccc2c(c1)OCO2)c1c(O)c2cccc3c2n(c1=O)CCC3,14.3
6,O=C(OCc1nnc(-c2ccccc2)o1)c1ccc(S(=O)(=O)NCc2ccco2)cc1,-0.314
7,c1ccc(-c2ncc3c(ccc4ccccc43)n2)cc1,2
8,O=C(c1cccs1)N1CCN(Cc2ccccc2)CC1,-12.2
9,O=c1cc(-c2cccc(Br)c2)oc2cccc(O)c12,22.6
10,C#CCOC(=O)C(NC(=O)c1ccccc1)=C1CCCCC1,-13.7
11,O=C(Nc1nc2ccccc2[nH]1)NC1CCCCC1,16.5
12,COc1cccc(NC(=O)Nc2nnc(Cc3ccc(OC)c(OC)c3)s2)c1,20.6
13,COc1ccc(OC)c(C2C(C(=O)c3ccc(C)o3)=C(O)C(=O)N2CCCN2CCOCC2)c1 (stereo not shown),1.84
14,C/C=C(\C)C(=O)O[C@H](c1cc2ccc(=O)oc2cc1OC)[C@@H](O)C(C)(C)O,4.56
15,O=C1NC(=O)N(Cc2ccccc2)C(=O)/C1=C/C=C/c1ccco1,-2.14
16,COCc1cc(=O)n2[nH]c(C)c(-c3ccccc3)c2n1,12.3
17,Cl.OCCCCNCc1cc(Br)ccc1OCc1ccccc1F,-24.7
18,Cn1nccc1C(=O)Nc1nnc(C2CC2)s1,2.07
19,NNc1ccc(Cl)c(C(=O)O)c1,5.85
20,CCn1c(SCC(=O)N2CCC(C)CC2)nc2c1c(=O)n(C)c(=O)n2C,-1.22
21,COC(=O)c1ccc(OC)c(CSc2nnc(COc3ccccc3)o2)c1,-17.7
22,c1ccc(Cc2nnc3n2CCCCC3)cc1,13.1
23,Cc1cc(C)c2nc(NNC(=O)c3cc(-c4cccs4)nc4ccccc34)sc2c1,18.3

row,Structure (SMILES),"hERG current change (%, negative = inhibition) at 10uM [%]"
1,CCN(CC(=O)Nc1c(F)cccc1F)C(=O)c1ccc(Sc2nncn2C)c([N+](=O)[O-])c1,29.7
2,Cc1ccc(/C=C2\C(=O)NC(=O)N2C)o1,5.55
3,CCc1ccc(NC(=O)CSc2nc3cc(C(=O)OC)ccc3c(=O)n2Cc2ccco2)cc1,-3.32
4,COc1ccc(-n2ccn3c(CCC(=O)N4CCN(c5cccc(C)c5C)CC4)nnc3c2=O)cc1,4.37
5,Cc1cc(C)c(OCCCCCNCCO)c(C)c1,-5.77
6,COc1ccc2cc(CN(CC3CCCO3)S(=O)(=O)c3ccccc3Cl)c(=O)[nH]c2c1 (stereo not shown),-36.7
7,CC(=O)c1cnc2ncnn2c1C,7.67
8,COc1ccc(OC)c(S(=O)(=O)N2CCN(c3c(C)cccc3C)CC2)c1,-2.72
9,CC(NCC(=O)NCCc1ccc(S(N)(=O)=O)cc1)c1ccc(F)cc1 (stereo not shown),13.4
10,COc1ccccc1N1CCN(C(=O)CCC(=O)Nc2nnc(CC(C)C)s2)CC1,-14.2
11,CS(=O)(=O)c1cnc(-c2ccccc2)nc1Oc1ccc(Cl)cc1,3.63
12,O=C(Nc1cccc(C(F)(F)F)c1)n1cc(-c2ccccn2)c(N2CCOCC2)n1,12
13,Cn1nc(C(C)(C)C)c(NC(=O)c2cccs2)c1C(C)(C)C,8.76
14,O=C(Nc1ccn(C2CC(OC(=O)c3ccccc3)C(CO)O2)c(=O)n1)c1ccccc1 (stereo not shown),5.48
15,CCSc1nsc(NC(=O)Nc2cccc(F)c2)n1,24.1
16,COc1ccc(N(CC(=O)NC2CCCC2)C(=O)c2csnn2)cc1,-13
17,COc1ccc(CNC(=O)c2c(C)nc3ccccn23)cc1,-12.1
18,O=C(OCC(=O)c1ccccc1Br)c1ccncc1,14.4
19,Cc1ccccc1C(=O)NC(=S)Nc1ccc(N2CCN(C(=O)c3ccccc3)CC2)cc1,13.8
20,Cc1cccc(N/N=C/c2c(O)[nH]c(=S)[nH]c2=O)c1,10.3
21,CCn1c(CNC(=O)c2ccccc2Br)nnc1SCC(=O)Nc1nncs1,3.2
22,CCCCNC(=O)COC(=O)c1ccccc1F,0.511
23,N#C/C(=C(/O)c1cc2ccccc2o1)c1nc2ccccc2s1,8.03

row,Structure (SMILES),"hERG current change (%, negative = inhibition) at 10uM [%]"
1,CC1CCCN(Cc2cnc(Cl)s2)C1 (stereo not shown),13
2,O=C(N=C1c2ccccc2CN1c1ccc(F)c(F)c1)c1cccnc1,-7.57
3,Br.N=c1n(CC(=O)c2cccc([N+](=O)[O-])c2)c2ccccc2n1Cc1ccccc1,-17.9
4,CCCN1CCC(NC(=O)Nc2cccc3ccccc23)CC1,-12.1
5,COc1ccc(-c2cc(CC3(C(=O)O)CCN(C(=O)OC(C)(C)C)CC3)on2)c(OC)c1,-1.54
6,CCOC(=O)c1cc(C)sc1NC(=O)CCC(=O)O,-3.59
7,CC(C(=O)O)N1C(=O)C2C3CC(C2C1=O)C1C(c2ccccc2)c2sc(=O)[nH]c2SC31 (stereo not shown),13.8
8,CC(C)(C)c1ccc(C(=O)C2CCCN(Cc3ccon3)C2)cc1 (stereo not shown),-1.45
9,COc1cc(/C=N/NC(=O)C2CC(=O)N(c3ccc(C)cc3)C2)cc(OC)c1OC (stereo not shown),16.2
10,O=C(Nc1cccc2ccccc12)c1onc2c1CCCC2,15.9
11,Cc1ccccc1COC(=O)c1nn(-c2ccccc2)nc1N,5.29
12,O=C(c1ccccc1Cl)N1CCNCC1,13.2
13,NCCNc1ccc(C(=O)N2c3ccccc3Sc3ccccc32)cc1[N+](=O)[O-],10.4
14,Cc1cnc(NC(=O)c2cccs2)s1,13.2
15,CCOc1ccc(C2C(C(=O)c3ccco3)=C(O)C(=O)N2CCCn2ccnc2)cc1OCC (stereo not shown),1.11
16,Fc1ccc(C2CC(c3ccccc3)n3ncnc3N2)cc1 (stereo not shown),-29.3
17,COCCOC(=O)C1=C(C)NC(=O)N(C(C)=O)C1c1ccc(Cl)cc1 (stereo not shown),1.94
18,COc1ccccc1-n1cnnc1SC(C)C(=O)Nc1ccc(NC(C)=O)cc1 (stereo not shown),1.22
19,Cc1cccc(OCC(=O)Nc2cccc(O)c2)c1,-1.74
20,CCC(=O)NNc1nc2c(Cl)cccc2s1,40.4
21,O=S(=O)(c1ccc(F)cc1)N1CCN(S(=O)(=O)c2cc(F)ccc2F)CC1,18
22,CCCc1nc2oc3ccccc3c(=O)c2c(=O)n1-c1ccc(C)cc1,-3.65
23,CN(CC(=O)Nc1ccccc1Cl)C(=O)COC(=O)CN1C(=O)NC2(CCCC2)C1=O,9.31

row,Structure (SMILES),"hERG current change (%, negative = inhibition) at 10uM [%]"
1,CCN(CC)c1nc2ccccc2[nH]1.Cl,-6.44
2,COc1ccc(Cl)cc1C(=O)NNC(=O)c1n[nH]c2ccccc12,0.44
3,COc1ccc(OC)c(C(=O)c2oc3ccccc3c2NC(C)=O)c1,-20
4,COc1cc(/C=C2/SC(=S)N(Cc3ccccc3)C2=O)cc(Cl)c1O,23.5
5,COCc1ccc(C(=O)OC(C)C(=O)Nc2c(C)n(C)n(-c3ccccc3)c2=O)cc1 (stereo not shown),9.09
6,Clc1cccc(CSc2nccn2-c2ccccc2)c1,-8.01
7,CCN1C(=O)/C(=C\N(C)C)S/C1=N\S(=O)(=O)c1ccccc1,-2.12
8,COc1ccc(-c2noc(CN(C)C(=O)c3ccoc3C)n2)cc1OC,-0.132
9,CCCSc1nnc2[nH]c(=O)cc(N)n12,13.6
10,Cc1ccc(S(=O)(=O)NN2C(=O)/C(=C/c3cccs3)SC2=S)cc1,-22
11,COc1cccc(CN2CCC(n3nccc3NC(=O)CCOc3ccccc3)CC2)c1,-62
12,Cc1cccc2cc(-c3nc4ccc(C(=O)O)cc4[nH]3)c(=O)oc12,13.2
13,O=C(O)C1CCC(c2ccc(-c3ccccc3)cc2)CC1 (stereo not shown),-28.2
14,CC12CC3(C)CC(C)(C1)CC(C(=O)NC(=S)N1CCOCC1)(C2)C3,-9.18
15,CCCCn1c(SCC(=O)c2ccc3c(c2)OCCO3)nnc1-c1ccco1,-14
16,CCOC(=O)Cn1c(C(=O)OCC)cc2sccc21,15
17,O=C(CCCCCN1C(=O)c2cccc3cccc(c23)C1=O)NCCCO,-1.71
18,Cc1cc(C(=O)NNCc2ccccc2)no1,-3.87
19,Cc1ccc(S(=O)(=O)N2CCCCC2)cc1NC(=O)CNc1ccc(C(F)(F)F)cc1,3.45
20,Cc1ccc(C)c(NC(=O)CSc2nnc(CNC(=O)c3cccs3)o2)c1,-9.36
21,CN(C(=O)CC1C(=O)NCCN1Cc1ccc(F)c(F)c1)C1CCOCC1 (stereo not shown),8.25
22,O=C(CCC(=O)N1CCN(Cc2ccccc2)CC1)Nc1nnc(C2CCCCC2)s1,-9.04
